Measurements: PubChem BioAssay AID1745853 (National Center for Advancing Translational Sciences (NCATS), 2022)
This is one part of the list. These are further read-outs of the screen, such as a control signal, another cell line or another target. No call is given for them.

Legend:
Assay in all cases: Primary Screen for Target Class Profiling of Small Molecule Inhibitors of Methyltransferases
[1] = target: Glycine N-methyltransferase (Homo sapiens) (UniProt Q14749); conditions: purified enzyme, MTase-Glo SAH luminescence; measured here: GNMT inhibition; at 40 µM; stronger effect = lower value
How it was run: (§1)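 Each enzyme was reacted with SAM and its substrate, with compounds tested once at 40 uM; SAH formed was read by MTase-Glo luminescence.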

[2] = target: Guanidinoacetate N-methyltransferase (Homo sapiens) (UniProt Q14353); conditions: purified enzyme, MTase-Glo SAH luminescence; measured here: GAMT inhibition; at 40 µM; stronger effect = lower value
How it was run: as §1

[3] = target: Histamine N-methyltransferase (Homo sapiens) (UniProt P50135); conditions: purified enzyme, MTase-Glo SAH luminescence; measured here: HNMT inhibition; at 40 µM; stronger effect = lower value
How it was run: as §1

[4] = target: Nicotinamide N-methyltransferase (Homo sapiens) (UniProt P40261); conditions: purified enzyme, MTase-Glo SAH luminescence; measured here: NNMT inhibition; at 40 µM; stronger effect = lower value
How it was run: as §1

[5] = target: Phenylethanolamine N-methyltransferase (Homo sapiens) (UniProt P11086); conditions: purified enzyme, MTase-Glo SAH luminescence; measured here: PNMT inhibition; at 40 µM; stronger effect = lower value
How it was run: as §1
% is set by controls: 0 for no effect and ±100 for the full control effect.

Row | SMILES | activity change, negative = inhibition [1] [%] | activity change, negative = inhibition [2] [%] | activity change, negative = inhibition [3] [%] | activity change, negative = inhibition [4] [%] | activity change, negative = inhibition [5] [%]
1 | C=C1CC[C@@]2(OC1)O[C@H]1CC3[C@@H]4CC=C5C[C@@H](O)C[C@@H](O[C@@H]6OC[C@H](O)[C@H](O)[C@H]6O[C@@H]6O[C@@H](C)[C@H](O)[C@@H](O)[C@H]6O)[C@]5(C)C4CC[C@]3(C)[C@H]1[C@@H]2C (stereo partly drawn) | 0 | 10.1 | -0.804 | -3.64 | 6.31
2 | O=C1NC(=O)C(c2cn(-c3ccccc3)nc2-c2ccc(F)cc2)N1 (stereo not drawn) | -7.26 | -7.5 | 1.69 | -18.1 | 1.71
3 | CC(C)c1ccc(S(=O)(=O)c2nnn3c2nc(N)c2ccccc23)cc1 | -10.2 | -2.58 | -10.6 | -16.3 | -12.6
4 | CCCn1c(=O)c2cc(Cl)ccc2n2c(SCC(=O)NCc3cccc(OC)c3)nnc12 | -3.01 | 4.16 | 7.09 | -4.85 | 0.798
5 | CCOc1ccc(-c2cc(NC(=O)c3c(F)cccc3F)c(C(=O)O)s2)cc1 | -65.5 | -38.9 | -4.79 | -46.3 | -9.84
6 | CC(=O)Nc1cccc(Nc2ncnc(N3CCC(OCc4ccc(OC(F)(F)F)cc4)CC3)n2)c1C | -2.73 | 13.5 | 6.28 | -11.8 | 6.45
7 | O=C(OCC1=CC(O)C2C=CO[C@@H](O[C@@H]3O[C@H](CO)[C@@H](O)[C@H](O)[C@H]3O)C12)c1ccccc1 (stereo partly drawn) | 0 | 8.59 | 8.19 | -2.46 | 7.33
8 | CCN1C(=O)c2c(C(=O)NCc3ccc(OC)c(OC)c3)ncn2CC1(C)C(=O)NC1CCCC1 (stereo not drawn) | -5.52 | 0 | 11 | 2.93 | 5.68
9 | Cn1nccc1C(=O)N1CC(c2nc(CCOCC3CCCC3)no2)C1 | 2.59 | -9.12 | 2.53 | -0.024 | 2.62
10 | Cc1cc(F)ccc1NC(=O)c1cc2n(n1)CC(C)(C(=O)NC1CCCCC1)N(C)C2=O (stereo not drawn) | 7.25 | 0.956 | 4.18 | -0.616 | -0.885
11 | CCN(Cc1cnn(CC)c1)C(=O)C1COc2ccccc2C1 (stereo not drawn) | -2.02 | 1.76 | 1.29 | 3.76 | 0.495
12 | CCOC(=O)CCNC(=O)N1CCCC(c2nc(C(C)C)no2)CCNC(=O)CC1 (stereo not drawn) | -4.54 | -8.23 | -3.35 | -15 | -10.6
13 | Cn1ccc(C(=O)N[C@@H]2COCC[C@@H]2OCc2cscn2)cc1=O | -4.73 | -0.253 | 1.93 | -3.48 | -21.5
14 | CC(=O)O[C@@H]1[C@H](OC(C)=O)C[C@@]2(C)C(CC[C@@H](C)[C@]23Cc2c(O)cc4c(c2O3)CN([C@@H](CCC(=O)O)C(=O)O)C4=O)C1(C)C (stereo partly drawn) | 0.096 | -1.64 | 11.7 | -14.6 | -8.73
15 | CCOC(=O)c1cc2n(n1)CC(C)(C(=O)NC1CCC(C)CC1)N(c1cccc(Cl)c1C)C2=O (stereo not drawn) | -0.602 | 3.06 | 0.438 | -3.15 | -1.54
16 | CN(Cc1cccs1)c1ncnc2ccc(-c3ccc4c(c3)OCO4)cc12 | – | -78.6 | – | -83.6 | -85
17 | CN1CC(=O)N(C2CCCNCC2)Cc2c1ncnc2N1CCCC1CO (stereo not drawn) | -1.76 | -3.01 | 0.254 | -5.82 | -0.608
18 | O=S(=O)(c1ccc(Cl)cc1)c1nnn2c1nc(NCc1ccc3c(c1)OCO3)c1ccccc12 | 1.22 | 6.87 | 1.88 | -2.02 | -5.49
19 | COc1ccc(OC)c(S(=O)(=O)N2CCC(n3c(C)cnc3C3CCOCC3)CC2)c1 | -10.4 | 3.9 | -6.66 | -8.41 | -3.81
20 | CCCn1c(=O)c2ccccc2n2c(SCc3ccccc3F)nnc12 | -17.8 | 5.73 | -1.13 | -14.7 | 1.37
21 | Cc1noc(C)c1CN1CCOC[C@H](O)C1 | -0.488 | -1.78 | 1.75 | 0.808 | -1.79
22 | CC(C)(C)c1onc(OCP(=O)(O)O)c1CC(N)C(=O)O (stereo not drawn) | 4.62 | 21.4 | 17.4 | -8.3 | 5.37
23 | Cc1nc(C2(C)CCN(C(=O)CCc3cc(Cl)no3)CC2)no1 | -1.62 | 1.13 | 0.988 | -1.46 | -0.778
24 | CCOC(=O)c1cc2n(n1)CC(C)(C(=O)NCc1ccccc1OC)N(CCc1ccc(SC)cc1)C2=O (stereo not drawn) | 0.877 | 5.19 | 1.55 | 3.06 | 4.07
25 | O=c1c2ccccc2n2c(=O)n(Cc3ccc(Cl)cc3)nc2n1Cc1ccccc1 | 4.46 | 0 | 8.3 | 5.96 | 7.07
26 | CC(C)Cn1c(=O)c2ccc(C(=O)NC3CCCC3)cc2n2c(=O)n(Cc3ccc(F)cc3Cl)nc12 | 6.5 | 2.49 | 13.4 | 1.64 | 8.38
27 | O=C(Cn1c(=O)oc2cc(S(=O)(=O)N3CCCC3)ccc21)N1CCN(Cc2ccccc2)CC1 | 15.9 | 0 | 10.8 | 1.34 | 5.26
28 | Cc1ccc(CN2C(=O)c3cc4occc4n3CC2(C)C(=O)NC2CCC(C)CC2)cc1 (stereo not drawn) | -2.43 | 3.18 | 3.89 | -7.34 | 0.241
29 | CC(C)OCCCn1c(=O)c2ccccc2n2c(=O)n(Cc3ccccc3F)nc12 | -5.87 | 1.06 | -2.12 | -14.1 | -4.5
30 | CCc1ccc(S(=O)(=O)c2nnn3c2nc(NCc2ccc(OC)cc2)c2ccccc23)cc1 | -0.547 | 1.41 | 6.88 | 10.6 | 1.41
